Some of the results follow.
target: T1, OsWOX13 (Oryza sativa, UniProt Q5QMM3 1-267); experiment: protein-binding microarray (RPBM); PBS, 2% BSA, 51.3 ng/ul salmon testes DNA, 50 uM zinc acetate, 200 nM TF, 25 C, 1 h; high values mean tight binding; settings: protein: recombinant; tags: N-terminal polyhistidine and DsRed monomer fusion (pET32a); label: CyDye5-dUTP incorporated in the synthesized complementary strand; 3' TTTTT single-stranded linker to array surface; dsDNA, one strand shown
T1 sequence: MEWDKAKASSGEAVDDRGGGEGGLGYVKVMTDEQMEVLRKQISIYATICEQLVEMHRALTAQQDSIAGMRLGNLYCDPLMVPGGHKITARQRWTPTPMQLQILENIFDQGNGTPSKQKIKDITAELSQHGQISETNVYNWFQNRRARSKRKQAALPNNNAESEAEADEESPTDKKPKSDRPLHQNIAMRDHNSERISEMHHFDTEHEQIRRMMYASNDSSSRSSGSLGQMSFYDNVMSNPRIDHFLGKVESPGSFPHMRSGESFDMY
Summary of the method: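 Transcription factors were each fused at the N-terminus to a polyhistidine tag plus DsRed and expressed in E. coli BL21-CodonPlus before Ni–NTA purification. Binding to a double-stranded custom Agilent array was carried out with 200 nM protein at 25 °C for 1 h in PBS, 2% BSA, salmon testes DNA and 50 µM zinc acetate. The binding signal is per-feature fluorescence intensity, in arbitrary units, on an Axon 4000B scanner.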

Row | Sequence | binding signal
1 | ACGGATTAACGGATTGGTAGCGGTACGAAATGGAATGTCTCGGAGTCACCTAGTGCAG | 6590 fluorescence intensity (a.u.)
2 | GTTAGACTGACAGGTGGGGCCAGACCAAACCCCGTGTAAACGGAGTCACCTAGTGCAG | 17400 fluorescence intensity (a.u.)
3 | TTTTATGAAATATTTATTTAATTACATAGGTGACATAGATCGGAGTCACCTAGTGCAG | 3930 fluorescence intensity (a.u.)
4 | GGTATAGATGGACACAATTTGATGGCAATGGGGAGTTGAGCGGAGTCACCTAGTGCAG | 7370 fluorescence intensity (a.u.)
5 | CTGTAAACTATAATTTACTCTGAGCATCTATACAAAAGGACGGAGTCACCTAGTGCAG | 9000 fluorescence intensity (a.u.)
6 | TGTAAATTTGTGTTCAAACTTCAAACCCTTTCGAAATATCCGGAGTCACCTAGTGCAG | 5640 fluorescence intensity (a.u.)
7 | GGTGTGGTGATTGAGTGGACTGAGGGGATGGAGGGATGAGCGGAGTCACCTAGTGCAG | 30300 fluorescence intensity (a.u.)
8 | GTTTATAATAATTAAAACTTAATTAATCACATGTTATTACCGGAGTCACCTAGTGCAG | 22900 fluorescence intensity (a.u.)
9 | CAGTAACAATCACTCATTCTCAGTATCTGCTACTCCTCTACGGAGTCACCTAGTGCAG | 3660 fluorescence intensity (a.u.)
10 | GTTTGTTAATTATTCACTAATCTCTAGTACTATAGTTGTACGGAGTCACCTAGTGCAG | 17100 fluorescence intensity (a.u.)
11 | GTACACTATAAATTTATATGTTTGCATACCATAGGGCAAACGGAGTCACCTAGTGCAG | 3200 fluorescence intensity (a.u.)
12 | TGCTCTGAATGGATGCAATCAAGCAATAGCACCATACGTCCGGAGTCACCTAGTGCAG | 5360 fluorescence intensity (a.u.)
13 | TGTGATTAGACCAGAAAGGGATTACAAAATTGGCCACTCCCGGAGTCACCTAGTGCAG | 42200 fluorescence intensity (a.u.)
14 | GAACTTGGCCGATTTGTCAATTAATTTACAAATACAAACTCGGAGTCACCTAGTGCAG | 22300 fluorescence intensity (a.u.)
15 | TGTTTTAATTTACGAGGGCCGTCGTGTTCAGGACTCGCAACGGAGTCACCTAGTGCAG | 6320 fluorescence intensity (a.u.)
16 | CCCCTCCAAAATTTATGTAATTACCTCCCATCTCTCCATACGGAGTCACCTAGTGCAG | 9350 fluorescence intensity (a.u.)
17 | GTGGGATTGGGATTGGAAAATAAATGAAGGGTTAGGATTACGGAGTCACCTAGTGCAG | 29700 fluorescence intensity (a.u.)
18 | TTCTTGATGGAAATTGAAATTGTGTGTGTGGGATGCAGGACGGAGTCACCTAGTGCAG | 46400 fluorescence intensity (a.u.)
19 | ACGGAGGAGTTAATTTTGATCTAATGCCTAATATATGTGGCGGAGTCACCTAGTGCAG | 3220 fluorescence intensity (a.u.)
20 | TATACACATAACAAAATTAAATTAGACTACCCATTTCAATCGGAGTCACCTAGTGCAG | 3450 fluorescence intensity (a.u.)
21 | TTATTAGATTGACTATAGATAAATTAGATAAATTGGAGTTCGGAGTCACCTAGTGCAG | 53600 fluorescence intensity (a.u.)
22 | TTGTTTGACAGGTGATGTTGATTCAGAGTAGAGAACTGCACGGAGTCACCTAGTGCAG | 16500 fluorescence intensity (a.u.)
23 | TATATATATATATATATATATATAATGTTTCATCACCTGTCGGAGTCACCTAGTGCAG | 30300 fluorescence intensity (a.u.)

— publication PMC7819943, “Rice protein-binding microarrays: a tool to detect cis-acting elements near promoter regions in rice”
